In PubChem BioAssay AID624202 (National Center for Advancing Translational Sciences (NCATS), 2012):
In all, about 380,000 compounds went through this assay and about 4,000 (1.1%) were called active. The inconclusive results got no clear call from the source; some entries with a clear call stand among them for comparison. The call rests on the fitted dose curve; in most records, active means well fitted activation curve with a large enough effect; inconclusive means small, poorly fitted or top-dose-only effect; inactive means no such curve, though single readings can be large or run the other way. Potencies of inconclusive entries are doubtful fits and often do not repeat.

assay: qHTS Assay to Identify Small Molecule Activators of BRCA1 Expression; settings: MCF7-BRCA1-FFLuc reporter, luminescence, 48 h; activation: at 46.1 µM (top of the series), scaled: vehicle 0%, 10 µM genistein 100% unless noted; further: nearly all actives have a fitted effect of over 80% in size
Procedure, shortened: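 Cells: MCF7-BRCA1-FFLuc, 2000/well. Exposure: 48 h, 37 °C, 5% CO2. Read: luminescence, 15 min post-substrate. Controls: genistein 10 microM (maximal activation), DMSO (neutral).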
Potency means the concentration at half of the fitted maximal effect; tags describe the fitted curve by direction and shape.

| Compound | Potency | activation |
| --- | --- | --- |
| COc1ccc(NC(=O)n2ncc3c(C)cccc32)cc1OC | inconclusive: 14.1 µM [activator, partial curve, poor fit] |  |
| CCC(Nc1ccc(-c2nc(-c3ccccn3)no2)cc1[N+](=O)[O-])c1ccccc1 (stereo not drawn) | inconclusive: 35.5 µM [activator, single point] |  |
| COc1ccc(N/N=C(/N=Nc2nc(C)cc(=O)[nH]2)c2ccccc2)cc1 |  | inactive: -34% |
| CC(=O)c1c(C)[nH]c(C(=O)Nc2ccc(C)cc2Br)c1C | inconclusive: 1.58 µM [activator, partial curve, poor fit] |  |
| ClC(=C\c1ccccc1)/C=N/N1CCN(c2ccccn2)CC1 | inconclusive: 2.82 µM [activator, full curve, poor fit] |  |
| O=[N+]([O-])c1cccc(-c2nnc(-c3ccccc3F)o2)c1 | inconclusive: 2 µM [activator, full curve, poor fit] |  |
| Cc1nn(C(=O)c2cccs2)c(N)c1-c1ccccc1 | inconclusive: 11.2 µM [activator, partial curve, poor fit] |  |
| Cc1cc(C)c2nc(N3CCCN(C(=O)c4ccco4)CC3)c(C#N)cc2c1 |  | inactive: 0.437% [at 1.84 µM, scaled: vehicle 0%, 10 µM genistein 100%] |
| CCCC(=O)Nc1sc2c(c1C#N)CCCCC2 | inconclusive: 12.6 µM [activator, partial curve, poor fit] |  |
| O=C(Cc1ccc(F)cc1)N/N=C/c1ccc2c(c1)OCO2 | active: 3.98 µM |  |
| COc1ccc(N2CC(C(=O)Nc3nnc(C4CCCCC4)s3)CC2=O)cc1 (stereo not drawn) |  | inactive: -2.58% |
| CSc1nc2ccc(NC(=O)c3ccc(F)c(F)c3)cc2s1 | inconclusive: 6.31 µM [activator, partial curve, poor fit] |  |
| O=C(CSc1ccc(-c2ccccc2)nn1)Nc1ccc2c(c1)OCCO2 | inconclusive: 31.6 µM [activator, single point] |  |
| O=C(CN1C2CCCC1CC(NC(=O)C1CCCCC1)C2)NCc1ccc(F)cc1 (stereo not drawn) |  | inactive: -33.8% |
| O=c1ccccn1CCOc1ccccc1Cl | active: 12.6 µM |  |
| NC(=O)C1CCN(C(=O)/C=C/c2cccc(Br)c2)CC1 | inconclusive: 10 µM [activator, partial curve, poor fit] |  |
| CCCCOc1ccc(C(=O)NNC(=O)C2C3CCC(C3)C2C(=O)O)cc1 (stereo not drawn) | inconclusive: 12.6 µM [activator, partial curve, poor fit] |  |
| OC[C@H]1O[C@@H](c2nc3ccc(-c4nc(-c5cccs5)no4)cc3[nH]2)C[C@@H]1O | inconclusive: 2 µM [activator, full curve, poor fit] |  |
| O=C1N=C(N2CCOCC2)S/C1=C1\C(=O)N(Cc2ccccc2)c2ccccc21 | inconclusive: 1.58 µM [activator, partial curve, poor fit] |  |
| CC(O)CN=c1cc(-c2ccccc2)oc2ccc(Cl)cc12 (stereo not drawn) | inconclusive: 3.16 µM [activator, partial curve, poor fit] |  |
| Cc1cccn2c(=O)c(/C=C(\C#N)S(=O)(=O)c3ccccc3)c(N3CCC(C(N)=O)CC3)nc12 |  | inactive: -16.5% |
| COc1nc(C)ccc1-c1noc(-c2ccncc2)n1 | inconclusive: 11.2 µM [activator, partial curve, poor fit] |  |

| Compound | Potency | activation |
| --- | --- | --- |
| CC1CCC2(CC1)NC(=O)N(CC(=O)Nc1ccccc1-c1ccccc1)C2=O (stereo not drawn) |  | inactive: -28.3% |
| Cc1ccc(C(=O)NC2CCCCC2)cc1 | inconclusive: 1.78 µM [activator, full curve, poor fit] |  |
| O=C(COC(=O)c1c2c(nc3ccccc13)/C(=C\c1cccs1)CCC2)Nc1ccccc1 |  | inactive: -82.8% |
| CN(C)c1ccc(C(=O)N=c2sccn2C)cc1[N+](=O)[O-] | active: 11.2 µM |  |
| Cn1cccc1C(=O)OCC(=O)c1c[nH]c2ccccc12 | inconclusive: 2.82 µM [activator, partial curve, poor fit] |  |
| CCOC(=O)c1c(C)[nH]c(C(=O)CSc2ccccc2)c1C | inconclusive: 0.631 µM [activator, full curve, poor fit] |  |
| O=C(CSc1nnnn1-c1ccccc1)Nc1ncc(Cc2ccccc2Cl)s1 |  | inactive: 7.78% |
| CCOC(=O)N1CCC(NC(=O)c2oc3c(F)cccc3c2C)CC1 | inconclusive: 14.1 µM [activator, single point] |  |
| CNc1ncc(C(=O)c2ccc(F)cc2)s1 | inconclusive: 10 µM [activator, partial curve, poor fit] |  |
| Cc1nc(-c2ccc(Cl)cc2)sc1C1(C)CC(c2cccnc2)=NO1 (stereo not drawn) | inconclusive: 7.94 µM [activator, partial curve, poor fit] |  |
| N/C(=N\OC(=O)COc1ccc(Br)cc1Cl)c1ccncc1 | inconclusive: 0.794 µM [activator, full curve, poor fit] |  |
| COc1ccc2cc(C(N)=O)c(=Nc3ccccc3)oc2c1 | inconclusive: 1.12 µM [activator, full curve, poor fit] |  |
| C/C(Cc1ccccc1)=N\NC(=O)CNC(=O)c1ccc2c(c1)OCCO2 |  | inactive: 21.3% |
| COc1ccc(OCc2nc3ccccc3n2Cc2ccc(C(C)(C)C)cc2)cc1 | active: 4.47 µM |  |
| Cc1ccsc1C1NC(=O)c2c(sc3c2CCCC3)N1 (stereo not drawn) | inconclusive: 3.16 µM [activator, full curve, poor fit] |  |
| Cc1ccc2nc3ccc(N4CCCC4)nn3c(=O)c2c1 | inconclusive: 2.51 µM [activator, full curve, poor fit] |  |
| CCC(C)NC(=O)c1cc2cc3ccc(OC)cc3nc2s1 (stereo not drawn) | inconclusive: 0.562 µM [activator, full curve, poor fit] |  |
| CC(C)c1ccc(CNc2ccc([N+](=O)[O-])cn2)cc1 | inconclusive: 3.98 µM [activator, partial curve, poor fit] |  |
| O=S(=O)(Nc1ccc2c(c1)nc1n2CCN(Cc2ccccc2)C1)c1ccccc1 |  | inactive: -36.5% |
| COc1ccc(N(CC(=O)Nc2ccc(C)cc2)S(=O)(=O)c2c(C)noc2C)cc1 |  | inactive: -24.1% |
| O=C(NC1=NCCS1)c1cccc(Br)c1 | inconclusive: 1.58 µM [activator, full curve, poor fit] |  |
